Assay results taken from US11572398B2, “GLP-1 derivatives and uses thereof” (Novo Nordisk A/S, priority 2014, dated 2023).
For at least one compound, name, drawing or mass did not settle the structure.

Key:
human GLP-1 receptor [1] = target: T1, human GLP-1 receptor (Homo sapiens, UniProt P43220); experiment: GLP-1 receptor binding: competitive binding assay (125I-GLP-1, SPA) on isolated membranes at low and high HSA; conditions: low HSA (max. 0.001% final assay concentration)
T1 construct: expressed in transfected cells; host or cells: BHK cells (parent line BHKTS13), clone FCW467-12A; membrane preparation
T1 sequence (P43220 24-463): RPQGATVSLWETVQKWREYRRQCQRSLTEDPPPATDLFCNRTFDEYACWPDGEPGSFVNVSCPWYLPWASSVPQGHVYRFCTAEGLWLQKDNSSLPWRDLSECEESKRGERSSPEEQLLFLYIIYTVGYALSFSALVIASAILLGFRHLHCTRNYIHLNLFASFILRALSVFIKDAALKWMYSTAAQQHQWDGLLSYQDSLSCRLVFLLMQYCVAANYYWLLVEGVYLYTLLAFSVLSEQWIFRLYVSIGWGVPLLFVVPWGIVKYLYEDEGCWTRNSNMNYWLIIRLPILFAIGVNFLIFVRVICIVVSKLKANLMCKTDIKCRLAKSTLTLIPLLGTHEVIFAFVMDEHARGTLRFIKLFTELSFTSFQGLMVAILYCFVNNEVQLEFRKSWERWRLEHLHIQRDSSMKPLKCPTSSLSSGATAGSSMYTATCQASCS
Experimental: The purpose of this example is to test the receptor binding of the GLP-1 derivatives in vitro. The receptor binding is a measure of affinity of a derivative for the human GLP-1 receptor.
Each derivative is added in a series of concentrations to isolated membranes containing the human GLP-1 receptor and displacement of the labelled ligand is monitored. The receptor binding is reported as the concentration at which half of the labelled ligand is displaced from the receptor, the IC50 value.
Buffer 1 consisted of 20 mM Na-HEPES plus 10 mM EDTA and pH was adjusted to 7.4. Buffer 2 consisted of 20 mM Na-HEPES plus 0.1 mM EDTA and pH was adjusted to 7.4. Assay buffer consisted of 50 mM HEPES supplemented with 5 mM EGTA, 5 mM MgCl2, 0.005% Tween 20 and pH was adjusted to 7.4. […]
The cells were grown at 5% CO2 in DMEM, 10% fetal calf serum, 1% Pen/Strep (Penicillin/Streptomycin) and 1.0 mg/ml of the selection marker G418. […] The resulting pellet was re-suspended in buffer 2 and the protein concentration was determined. […]
9. The assay plate was read in a Packard TopCount NXT instrument.
The data from the TopCount instrument were transferred to GraphPad Prism software. Individual replicates were analysed using non-linear regression. IC50 values were calculated by the software and reported in nM. The reported values are averages of all of the measured values for each compound.

human GLP-1 receptor [2] = target: T1, human GLP-1 receptor; experiment: In vitro potency: CRE luciferase reporter gene assay in BHK cells expressing the human GLP-1 receptor; type: cell-based; conditions: whole cell reporter gene assay, average of at least two replicates
Experimental: The purpose of this example is to test the activity, or potency, of the GLP-1 derivatives in vitro. The in vitro potency is the measure of human GLP-1 receptor activation in a whole cell assay.
In vitro potency was determined by measuring the response of the human GLP-1 receptor in a reporter gene assay. The assay was performed in a stably transfected BHK cell line that expresses the human GLP-1 receptor and contains the DNA for the cAMP response element (CRE) coupled to a promoter and the gene for firefly luciferase (CRE luciferase). When the human GLP-1 receptor is activated it results in the production of cAMP, which in turn results in the luciferase protein being expressed. […] The luminescence is measured as the readout for the assay. […]
3) Cells were counted and adjusted to 5×10^3 cells/50 μl (1×10^5 cells/ml) in assay medium. […]
4) Stocks of the test compounds and reference compounds were diluted to a concentration of 0.2 μM in assay buffer. […] 10) Each assay plate was read in a BioTek Synergy 2 Multi-Mode Reader. […]
The data from the BioTek Synergy 2 Multi-Mode Reader were transferred to GraphPad Prism software. […]
A minimum of two replicates were measured for each sample. The reported EC50 values are averages of all of the measured values for each compound.

[3] = test system: lean Sprague Dawley male rats; experiment: Pharmacodynamic study in rats: acute effect on food intake and body weight; type: in vivo; conditions: single s.c. dose 100 nmol/kg, change versus baseline

CC[C@H](C)[C@H](NC(=O)[C@H](Cc1ccccc1)NC(=O)[C@H](CCC(=O)O)NC(=O)[C@H](CCCNC(=N)N)NC(=O)[C@H](C)NC(=O)[C@H](C)NC(=O)[C@H](CCC(N)=O)NC(=O)[C@H](CCC(=O)O)NC(=O)[C@H](CCC(=O)O)NC(=O)[C@H](CC(C)C)NC(=O)[C@H](Cc1ccc(O)cc1)NC(=O)[C@H](CO)NC(=O)[C@H](CO)NC(=O)[C@@H](NC(=O)[C@H](CC(=O)O)NC(=O)[C@H](CO)NC(=O)[C@@H](NC(=O)[C@H](Cc1ccccc1)NC(=O)[C@@H](NC(=O)CNC(=O)[C@H](CCC(=O)O)NC(=O)C(C)(C)NC(=O)[C@@H](N)Cc1c[nH]cn1)[C@@H](C)O)[C@@H](C)O)C(C)C)C(=O)N[C@@H](C)C(=O)N[C@@H](Cc1c[nH]c2ccccc12)C(=O)N[C@@H](CC(C)C)C(=O)N[C@H](C(=O)N[C@@H](CCCNC(=N)N)C(=O)NCC(=O)N[C@@H](CCCNC(=N)N)C(=O)N[C@@H](CCCCNC(=O)CN(CCCNC(=O)COCCOCCNC(=O)COCCOCCNC(=O)COCCOCCNC(=O)COCCOCCNC(=O)COCCOCCNC(=O)[C@@H](N)CCCCNC(=O)[C@@H](N)CCCCNC(=O)CCCCCCCCCCCCCCCCCCC(=O)O)CCCNC(=O)COCCOCCNC(=O)COCCOCCNC(=O)COCCOCCNC(=O)COCCOCCNC(=O)COCCOCCNC(=O)[C@@H](N)CCCCNC(=O)[C@@H](N)CCCCNC(=O)CCCCCCCCCCCCCCCCCCC(=O)O)C(=O)O)C(C)C [Example 1, N{Epsilon-37}-[2-[bis[3-[[2-[2-[2-[[2-[2-[2-[[2-[2-[2-[[2-[2-[2-[[2-[2-[2-[[(2S)-2-amino-6-[[(2S)-2-amino-6-(19-carboxynonadecanoylamino)hexanoyl]amino]hexanoyl]amino]ethoxy]ethoxy]acetyl]amino]ethoxy]ethoxy]acetyl]amino]ethoxy]ethoxy]acetyl]amino]ethoxy]ethoxy]acetyl]amino]ethoxy]ethoxy]acetyl]amino]propyl]amino]acetyl]-[Ab8,Glu22,Arg26,Arg34,Lys37]-GLP-1-(7-37)-peptide]
IC50 (human GLP-1 receptor [1]): 120 pM
EC50 (human GLP-1 receptor [2]): 10 pM
% change in body weight 48 h [3]: −12%
% change in food intake 48 h [3]: −75%

CC[C@H](C)[C@H](NC(=O)[C@H](Cc1ccccc1)NC(=O)[C@H](CCC(=O)O)NC(=O)[C@H](CCCNC(=N)N)NC(=O)[C@H](C)NC(=O)[C@H](C)NC(=O)[C@H](CCC(N)=O)NC(=O)[C@H](CCC(=O)O)NC(=O)[C@H](CCC(=O)O)NC(=O)[C@H](CC(C)C)NC(=O)[C@H](Cc1ccc(O)cc1)NC(=O)[C@H](CO)NC(=O)[C@H](CO)NC(=O)[C@@H](NC(=O)[C@H](CC(=O)O)NC(=O)[C@H](CO)NC(=O)[C@@H](NC(=O)[C@H](Cc1ccccc1)NC(=O)[C@@H](NC(=O)CNC(=O)[C@H](CCC(=O)O)NC(=O)C(C)(C)NC(=O)[C@@H](N)Cc1c[nH]cn1)[C@@H](C)O)[C@@H](C)O)C(C)C)C(=O)N[C@@H](C)C(=O)N[C@@H](Cc1c[nH]c2ccccc12)C(=O)N[C@@H](CC(C)C)C(=O)N[C@H](C(=O)N[C@@H](CCCNC(=N)N)C(=O)NCC(=O)N[C@@H](CCCNC(=N)N)C(=O)N[C@@H](CCCCNC(=O)CN(CCCNC(=O)CCOCCOCCOCCOCCNC(=O)CCOCCOCCOCCOCCNC(=O)CCOCCOCCOCCOCCNC(=O)[C@@H](N)CCCCNC(=O)[C@@H](N)CCCCNC(=O)CCCCCCCCCCCCCCCCCCC(=O)O)CCCNC(=O)CCOCCOCCOCCOCCNC(=O)CCOCCOCCOCCOCCNC(=O)CCOCCOCCOCCOCCNC(=O)[C@@H](N)CCCCNC(=O)[C@@H](N)CCCCNC(=O)CCCCCCCCCCCCCCCCCCC(=O)O)C(=O)O)C(C)C [Example 5, N{Epsilon-37}-[2-[bis[3-[3-[2-[2-[2-[2-[3-[2-[2-[2-[2-[3-[2-[2-[2-[2-[[(2S)-2-amino-6-[[(2S)-2-amino-6-(19-carboxynonadecanoylamino)hexanoyl]amino]hexanoyl]amino]ethoxy]ethoxy]ethoxy]ethoxy]propanoylamino]ethoxy]ethoxy]ethoxy]ethoxy]propanoylamino]ethoxy]ethoxy]ethoxy]ethoxy]propanoylamino]propyl]amino]acetyl]-[Aib8,Glu22,Arg26,Arg34,Lys37]-GLP-1-(7-37)-peptide]
IC50 (human GLP-1 receptor [1]): 160 pM
EC50 (human GLP-1 receptor [2]): 10 pM
% change in body weight 48 h [3]: −13%
% change in food intake 48 h [3]: −78%
